# Source: article PMC4748275, “SpyRing interrogation: analyzing how enzyme resilience can be achieved with phytase and distinct cyclization chemistries” (Scientific Reports, 2016)
# Key:
# PhyC = PhyC (Bacillus subtilis, UniProt O31097); assay: colorimetric phosphate release (molybdate, OD700); assay type: biochemical; conditions: 1.6 mM phytic acid, 100 mM Tris-HCl pH 7.5, 1 mM CaCl2, 37 °C
# SpyTag-PhyC-SpyCatcher = SpyTag-PhyC-SpyCatcher (Bacillus subtilis, UniProt O31097); assay: colorimetric phosphate release (molybdate, OD700); assay type: biochemical; conditions: 1.6 mM phytic acid, 100 mM Tris-HCl pH 7.5, 1 mM CaCl2, 37 °C
# [1] = system: O=C(Cc1cccs1)N[C@@H]1C(=O)N2C(C(=O)O)=C(/C=C/c3ccc([N+](=O)[O-])cc3[N+](=O)[O-])CS[C@H]12; assay: purified protein; conditions: 50 mM NaH2PO4 pH 7.0, 0.1% BSA, 30 °C, 10-100 μM nitrocefin
Compound,"colorimetric phosphate release (molybdate, OD700) (PhyC)","colorimetric phosphate release (molybdate, OD700) (SpyTag-PhyC-SpyCatcher)",Km [1] [µM],kcat [1] [s⁻¹]
O=P(O)(O)O[C@H]1[C@H](OP(=O)(O)O)[C@@H](OP(=O)(O)O)[C@H](OP(=O)(O)O)[C@@H](OP(=O)(O)O)[C@H]1OP(=O)(O)O [phytic acid],"SpyTag-PhyC-SpyCatcher remained active, exhibiting comparable specific activity to PhyC","SpyTag-PhyC-SpyCatcher remained active, exhibiting comparable specific activity to PhyC",,
Pilin-C-BLA-Isopeptag (Escherichia coli),,,130 ± 4,1400 ± 40
SnoopTag-BLA-SnoopCatcher (Escherichia coli),,,150 ± 10,1700 ± 100
SpyTag-BLA-SpyCatcher (Escherichia coli),,,110 ± 6,910 ± 40
